Experimental data: PubChem BioAssay AID1508642 (National Center for Advancing Translational Sciences (NCATS), 2021)
Hit rate of the full screen: of about 43,000 compounds, about 200 (0.47%) were called active. Inconclusive results (about 12%) are left out. The call rests on the fitted dose curve; in most records, active means well fitted cell-killing curve with a large enough effect; inconclusive means small, poorly fitted or top-dose-only effect, or effect the other way; inactive means flat fitted curve, though single readings scatter. The list shows a part of the results.

Experiment: Cell viability qHTS assay in S16 Pmp22-F2sN cells; further: nearly all actives have a fitted effect of over 65% in size
Conditions: S16 Pmp22-F2sN Schwann cells (luciferase reporters placed in the Pmp22 gene) viability, CellTiter-Glo, 24 h; series mostly up to 57.5 µM; activity change, negative = cytotoxicity: at the top concentration
Outline: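 Rat S16 Schwann reporter line, 24 h treatment with library compounds delivered at 23 nL per well. Cell viability by CellTiter-Glo luminescence.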
On the % scale 0 is the no-effect control and ±100 the full control effect.

| Structure (SMILES) | activity change, negative = cytotoxicity |
| --- | --- |
| Cc1cccc(NC(=O)CCCn2nc(C)c3c(C)n(-c4ccccc4)nc3c2=O)c1C | inactive: 0.623% |
| Cc1ccc(S(=O)(=O)N(CC(=O)Nc2cccnc2)c2cc(Cl)ccc2C)cc1 | inactive: -7.22% |
| CCOC(=O)CN1C(=O)N(c2ccc(C)c(C)c2)S(=O)(=O)c2ccccc21 | inactive: 6.56% |
| CCN(CC)S(=O)(=O)c1cc(-c2ccc(=O)n(C(C)C(=O)Nc3cccc(C#N)c3)n2)ccc1C (stereo unspecified) | inactive: -17.9% |
| CCc1ccc(NC(=O)CSc2nnc(CC)c(CC)n2)cc1 | inactive: -1.95% |
| Cc1ccc(Cn2c(CN3CCC(C(=O)O)CC3)cc3ccccc32)cc1 | inactive: 12.3% |
| CCN(CC)CCCNC(=O)c1sc2nc3n(c(=O)c2c1C)CCCCC3 | inactive: 2.52% |
| COc1ccc(-c2noc(CSc3nnc(Cc4ccccc4)n3-c3ccc(F)cc3)n2)cc1 | inactive: -18.1% |
| CN(CC(=O)Nc1ccc(F)cc1F)S(=O)(=O)c1cccc2nsnc12 | inactive: -6.14% |
| CCOC(=O)C1CCN(C(=O)c2cnn(-c3ccc(F)cc3)c2-n2cccc2)CC1 | inactive: 2.24% |
| CCOC(=O)c1[nH]c2c(c1Cc1ccccc1)C(=O)CC(c1ccc(C(C)(C)C)cc1)C2 (stereo unspecified) | inactive: -13.6% |
| COc1ccc2oc(-c3cccc(NC(=O)c4cc([N+](=O)[O-])ccc4N4CCOCC4)c3)nc2c1 | inactive: 6.23% |
| CCOC(=O)C(C)Sc1nnc2cc(C)c3ccccc3n12 (stereo unspecified) | inactive: 8.04% |
| COc1cc(C2c3c(-c4c(C)cc(C)cc4O)n[nH]c3C(=O)N2Cc2ccco2)cc(OC)c1OC (stereo unspecified) | inactive: 2.06% |
| CCOc1cc(-c2nnc(SCC(=O)NC3CCCCC3)nc2-c2ccc(OC)c(OCC)c2)ccc1OC | inactive: -6.71% |
| CC(C)NC(=O)C1CCCN(c2ncnc3onc(-c4ccc(F)cc4)c23)C1 (stereo unspecified) | inactive: 11.6% |
| CCOc1ccccc1NC(=O)CCS(=O)(=O)c1ccc2c(c1)oc(=O)n2C | inactive: -18.5% |
| CCCn1c2ccccc2c2cnn(CC(=O)NCCN(CC)CC)c(=O)c21 | inactive: -0.237% |
| COc1ccc(-c2nc3ccccc3o2)cc1NC(=O)c1cccnc1 | inactive: 29.3% |
| COc1ccc(CCNC(=O)c2ccc3c(c2)N=C(C)c2ccccc2S3)cc1OC | inactive: 6.76% |
| Cc1cccc(NC(=O)CN(C)S(=O)(=O)c2ccc3c(c2)c(=O)n(C)c(=O)n3C)c1C | inactive: 6.62% |
| Cc1cc(Nc2cccc(C(=O)O)c2)n2nc(C)nc2n1 | inactive: -12.6% |
| CCCCOc1ccc(C(=O)Nc2cc(-c3cn4cccnc4n3)ccc2OC)cc1 | inactive: 4.54% |
| CCOc1c(Cl)cc(CNc2ccc3[nH]c(=O)[nH]c3c2)cc1OC | inactive: 1.75% |

| Structure (SMILES) | activity change, negative = cytotoxicity |
| --- | --- |
| COc1ccc(NC(=O)NC(C)c2c(-n3cccc3)sc(C)c2C)cc1OC (stereo unspecified) | inactive: -4.75% |
| O=C(c1cc(-c2ccc(Cl)cc2)n[nH]1)N1CCN(S(=O)(=O)c2ccc(Br)s2)CC1 | inactive: -16.9% |
| Clc1ccccc1Cn1c(-c2cccs2)nc2ccccc21 | inactive: 1.66% |
| CCOc1ccc(NC(=O)c2sc(-n3nc(C)c(Cc4ccc(Cl)cc4)c3C)nc2C)cc1 | inactive: 14.5% |
| Cc1nnc(NC(=O)c2nc(SC(C)C)ncc2Cl)s1 | inactive: 2.24% |
| CCN(c1cccc(C)c1)S(=O)(=O)c1cc2c(cc1C)n(C)c(=O)c(=O)n2C | inactive: -4.63% |
| Cc1cccc(N(C)C(=O)CCS(=O)(=O)c2ccc3c(c2)n(C)c(=O)c(=O)n3C)c1 | inactive: 11.1% |
| CCc1cccc(NC(=O)c2ccc3c(c2)N(Cc2cccc(Cl)c2)C(=O)c2ccccc2S3=O)c1 (stereo unspecified) | inactive: -1.44% |
| CCOC(=O)c1c(-c2ccc(C)cc2)csc1NC(=O)c1cc(-c2ccc(OC)cc2)on1 | inactive: -11% |
| Cc1ccc(NC(=O)Cn2c(=O)n(Cc3ccc4c(c3)OCO4)c(=O)c3oc4ccccc4c32)cc1C | inactive: 10.5% |
| CC(C)c1ccc(NC(=O)Cn2nnc(C(=O)NCc3ccc4c(c3)OCO4)c2N)cc1 | inactive: -4.24% |
| CCOC(=O)C1CCN(Cc2cn3c(-c4ccc(OC)cc4)nnc3s2)CC1 | inactive: 4.83% |
| COc1cccc(NS(=O)(=O)c2ccc3[nH]cc(C(=O)NC(C)c4ccccc4)c(=O)c3c2)c1 (stereo unspecified) | inactive: -7.83% |
| Cc1ccccc1CN1CCCN(CC(=O)Nc2ccc(F)cc2)S1(=O)=O | inactive: -6.11% |
| Cc1ccc(/C=C/C(=O)Nc2ccc3nc(N4CCC(C)CC4)cc(C)c3c2)cc1 | inactive: 17.3% |
| Cc1cc(N2CCC(C(=O)Nc3ccc(F)cc3F)CC2)n2nc(C)c(-c3ccc(Cl)cc3)c2n1 | inactive: 6.15% |
| CCOc1ccc(C(=O)Nc2ccc3nc(N(CC)CC)cc(C)c3c2)cc1 | inactive: 13.1% |
| Cn1c(=O)oc2cc(S(=O)(=O)NC(Cc3ccccc3)C(=O)Nc3ccc(F)c(Cl)c3)ccc21 (stereo unspecified) | inactive: 2.06% |
| COc1cc(-c2cc(OC)c3c(C)oc(C)c3c(=O)c2)ccc1OC(=O)c1cccc(C)c1 | inactive: 0.43% |
| Cc1nn(S(=O)(=O)c2ccc(F)cc2)c(C)c1S(=O)(=O)N1CCCCCC1 | inactive: 1.45% |
| Cc1c(-c2ccccc2)c(=O)oc2c(CN3CCOCC3)c(O)ccc12 | inactive: -0.405% |
| Cc1ccc(C2C=C(c3ccccc3)Nc3nc(NS(C)(=O)=O)nn32)cc1 (stereo unspecified) | inactive: 1.59% |
| CCc1cccc(C)c1NC(=O)CSc1nc2ccncc2[nH]1 | inactive: -28.4% |
| COc1ccc(NC(=O)C2CCN(c3cc(C)nc4c(-c5ccc(Cl)cc5)c(C)nn34)CC2)cc1 | inactive: 3.53% |

| Structure (SMILES) | activity change, negative = cytotoxicity |
| --- | --- |
| CCOc1ccc(C2C(C(=O)Nc3ccc(OC)cc3)=C(C)Nc3nc(CCCO)nn32)cc1 (stereo unspecified) | inactive: 2.21% |
| Cc1ccc(-c2noc(-c3ccc(N4CCCC4)c([N+](=O)[O-])c3)n2)cc1 | inactive: 4.98% |
| CCCc1cc(=O)[nH]c(SCc2nc(-c3ccc(OCC)cc3)no2)n1 | inactive: -2.63% |
| CCOC(=O)c1ccc(N2C(=O)c3n[nH]c(-c4ccco4)c3C2c2ccccc2OC)cc1 (stereo unspecified) | inactive: -0.53% |
| COc1ccc(N(C)S(=O)(=O)c2ccc3c(c2)CCN3C(=O)CCC(=O)O)cc1 | inactive: 3.74% |
| COc1ccc(NC(=O)c2ccco2)cc1NC(=O)c1ccccc1[N+](=O)[O-] | inactive: 18.2% |
| CCc1cccc(C)c1Nc1nn2c(=O)c3ccccc3nc2s1 | inactive: -4.24% |
| COc1cccc(NC(=O)Cn2c(=O)n(CCC(=O)NCc3ccccc3OC)c(=O)c3ccccc32)c1 | inactive: 2.73% |
| COc1ccc(Cl)cc1NC(=O)Cn1c(=O)n2nc(-c3ccccc3)nc2c2ccccc21 | inactive: 1.72% |
| COc1cc(C2C=C(C(=O)O)Nc3ncnn32)ccc1O (stereo unspecified) | inactive: 3.04% |
| CCOc1ccc2c(c1)c(=O)c(C(=O)c1ccc(CC)cc1)cn2CC(=O)Nc1ccc2c(c1)OCCO2 | inactive: 12% |
| COc1ccc(CNC(=O)c2nn(C)c3c2CSc2ccccc2-3)cc1 | inactive: -9.01% |
| COc1ccc(-c2csc(-c3c(N)c(C(=O)c4ccc(OC)c(OC)c4)n4ccccc34)n2)cc1 | inactive: -10.6% |
| COc1ccc(C)c2sc(N(Cc3cccnc3)C(=O)c3cccs3)nc12 | inactive: -25% |
| Cc1ccc(NC(=O)Cn2cc3c(n2)CCCC3)cc1Cl | inactive: -3.16% |
| CCN1CCc2c(sc(-n3cccc3)c2C(C)NC(=O)Nc2ccc(C(=O)OC)cc2)C1 (stereo unspecified) | inactive: -1.59% |
| Cc1cccc(N2CCN(C(=O)CCS(=O)(=O)c3ccc4c(c3)CC(=O)N4C)CC2C)c1 (stereo unspecified) | inactive: -1.94% |
| CC(=O)N1CCN(c2csc3ccc(Cl)cc3c2=O)CC1 | inactive: 1.15% |
| Cc1ccc(NS(=O)(=O)c2ccc3c(c2)n(C)c(=O)n3C)c(C)c1 | inactive: -2.61% |
| Cc1cccc(C(c2sc3nc(-c4ccco4)nn3c2O)N2CCOCC2)c1 (stereo unspecified) | inactive: 5.33% |
| CCCCOC(=O)c1ccc(NC(=O)c2ccc3c(c2)CCN3S(C)(=O)=O)cc1 | inactive: -3.91% |
| Clc1cccc(CNCCCSc2nnnn2-c2ccccc2)c1 | inactive: 5.47% |
| COC(=O)c1scc(-c2ccc(C)cc2)c1S(=O)(=O)Nc1cc(C)c(Cl)cc1OC | inactive: 2.97% |
| CCOC(=O)c1c(-c2ccccc2)oc2ccc(OCc3ccccc3Br)cc12 | inactive: -1.41% |

| Structure (SMILES) | activity change, negative = cytotoxicity |
| --- | --- |
| CCOc1ccccc1NC(=O)Cn1c(=O)oc2ccccc21 | inactive: -9.33% |
| COc1ccc(NC(=O)Cn2cc(C(=O)c3ccc(C)c(C)c3)c(=O)c3cc(OC)ccc32)cc1 | inactive: -1.2% |
| O=C(NCCc1cccs1)c1ccc(Cn2c(SCc3cccc(F)c3)nc3cccnc32)cc1 | inactive: -30% |
| Cc1ccccc1S(=O)Cc1ccc(C(=O)NCc2ccccc2Cl)o1 (stereo unspecified) | inactive: 5.69% |
| O=C(Cn1cc(C(=O)c2ccco2)c2ccccc21)Nc1ccccc1C(F)(F)F | inactive: -12.8% |
| COc1ccc(-c2csc3ncnc(Nc4ccccc4)c23)cc1 | inactive: -21% |
| Cc1ccc(CSC2=NC(C)(C)Nc3ccccc32)c(C)c1 | inactive: -13% |
| Fc1cccc(CN2CCc3nc(Nc4ccc5c(c4)OCCO5)ncc3C2)c1F | inactive: -0.255% |
| Cc1c(NC(=O)Cc2ccc(Cl)cc2)cccc1-c1nc2cccnc2s1 | inactive: -14.4% |
| CCOC(=O)c1c(C)[nH]c(C)c1S(=O)(=O)NCC(=O)Nc1cccc(Cl)c1 | inactive: 19.3% |
| Cc1ccc(-n2ncc(C(=O)N3CCN(c4ccccc4F)CC3)c2C2CCN(C(=O)OC(C)(C)C)CC2)cc1C | inactive: 13.7% |
| CSc1ncc(Cl)c(C(=O)Nc2c(C(=O)c3ccc(Cl)cc3)oc3ccccc23)n1 | inactive: -4.45% |
| Cc1cccc(OC(=O)CSc2nnc(-c3cccs3)o2)c1C | inactive: 22.3% |
| CCOC(=O)c1c(S(=O)(=O)N2CCCC(C(=O)Nc3cccc(CC)c3)C2)c(C)n(CC)c1C (stereo unspecified) | inactive: -12.8% |
| O=C(CSc1nc(Nc2ccccc2)c2ccccc2n1)c1ccc(Cl)cc1 | inactive: 5.41% |
| Cc1ccccc1Nc1c(-c2c[nH]c3ccccc23)nc2ccc(Cl)cn12 | inactive: -18% |
| Cc1cc(C)cc(NC(=O)NCc2c(-n3cccc3)sc3c2CCCC3)c1 | inactive: 26.6% |
| Cc1cccc(CNC(=O)Cn2nc(C)c3nn(-c4ccc(Cl)cc4)c(C)c3c2=O)c1 | inactive: -6.71% |
| Cc1c(CNC2CCCCCC2)c(C(=O)O)c(C)n1Cc1cccc(Cl)c1 | inactive: 3.55% |
| CCOc1ccc(CNC(=O)c2cc3c(=O)oc4ccc(C)cc4c3s2)cc1 | inactive: -5.62% |
| COc1ccc(C2C(C(=O)Nc3ccccc3)=C(C)Nc3nc(-c4ccc(Cl)cc4)nn32)cc1 (stereo unspecified) | inactive: 4.42% |
| Cc1ccc(NC(=O)CSCc2cc(=O)c3ccccc3[nH]2)c(C)c1 | inactive: -10.4% |
| Cc1ccccc1CNCCCSc1nnnn1C | inactive: 1.25% |
| COc1ccc(CNC(=O)C2CCN(S(=O)(=O)c3cccc(-c4noc(C)n4)c3)CC2)cc1 | inactive: -0.759% |
